From a compilation of properties of binary mixtures (doi:10.1021/acs.jced.0c00588)
Some of these densities may be calculated back from excess volumes.

Assay: xn = mol fraction of the nth substance listed
Settings: 102 kPa

O=C(O)C(F)(F)C(F)(F)C(F)(F)C(F)(F)F + CC[n+]1ccn(C)c1.[Cl-]
mass density [kg/m3]
Settings | x2 = 0.3346 | x2 = 0.5026 | x2 = 0.6636
293.15 K | 1542.9 | 1450.6 | –
298.15 K | 1536.3 | 1445.2 | 1350.6
303.15 K | – | 1439.8 | 1346.2
308.15 K | 1523.4 | 1434.5 | 1342
313.15 K | – | 1429.2 | 1337.7
318.15 K | 1510.4 | – | 1333.4
323.15 K | 1504 | – | 1329.8
328.15 K | 1497.7 | 1413.5 | 1325.4
333.15 K | 1491.3 | – | –
338.15 K | – | – | 1317.1
343.15 K | 1478.4 | 1397.9 | 1312.9
348.15 K | 1472 | – | 1308.6
353.15 K | – | 1387.5 | 1304.4
